This is one part of the list. Further columns of the screen follow, without active or inactive calls.

The assay can be described thus: compounds producing H2O2 with reducing agent – biochemical, 10-point concentration response, NIH library profiling, artefact control for MLSCN library redox annotation, dose response (AID 1234). Particulars: DTT-dependent redox cycling H2O2, phenol red-HRP absorbance; H2O2 generation; at 50 µM; stronger effect = higher value.
As to `CCCCn1c(NC(=O)c2ccco2)c(C(=O)OCC)c2nc3ccccc3nc21`, the activation worked out at 7.8%.
For `Cc1nc2c(=O)n(C)c(=O)nc-2n(C)n1`, the activation was found to be 115%.
Turning to `O=C1C(=O)c2ccccc2-c2ccccc21`, the activation was 110%.
In the case of `CCn1nc(-c2ccccc2)nc2c(=O)n(C)c(=O)nc1-2`, the activation worked out at 113%.
Regarding `CCCCn1c(NS(=O)(=O)c2ccccc2)c(C(=O)OCC)c2nc3ccccc3nc21`, the activation was determined as 122%.
Consider `Cc1cccnc1NC1=NCC(C)S1` (configuration not stated), for which the activation is -1.49%.
Take `CCn1nc(/C=C/c2ccccc2)nc2c(=O)n(C)c(=O)nc1-2`: the activation was found to be 0.26%.
